Test results from PubChem BioAssay (NCI).
Where “and” joins values, the source holds several entries; their conditions need not be identical. Equal entries are not always repeated.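 The compound was tested at five concentrations on cells cultured in 96-well plates, with a 48-hour exposure period. GI50 is the concentration that inhibits growth by half. Definition used: TGI = concentration required for complete inhibition of growth.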

Test system: NCI-H322M lung
Experiment: NCI anticancer screen, dose series, 48 h

Row | SMILES | TGI | GI50
1 | CC(=O)/C=C/c1ccccc1 | > 100 µM | 
2 | Cc1ccc(N2C(=O)/C(=C/c3ccc(N(CCC#N)CCC#N)cc3)N=C2COc2ccc(Cl)cc2Cl)cc1 | > 100 µM | 
3 | CC1CCCC(C#N)(NOC2=NCCN2)C1 (configuration not stated) | > 100 µM | 32.4 µM
4 | O=c1cc(N2CCOCC2)n2c(ccc3ccccc32)n1 | > 100 µM | 
5 | Cc1ccc(-n2nncc2[Si](C)(C)C)s1 | > 100 µM | 
6 | CC(=O)OCC1OC(n2c(=O)[nH]c(=O)c3n[nH]nc32)C(OC(C)=O)C(OC(C)=O)C1OC(C)=O (configuration not stated) | > 100 µM | 
7 | CC(C)C1(NC(=O)C2CC3c4cccc5[nH]cc(c45)CC3N(C)C2)OC2(O)C3CCCN3C(=O)C(Cc3ccccc3)N2C1=O (configuration not stated) | > 100 µM | 
8 | c1cc2cc3c4c5c(cc6ccc7cc8cc9c%10c8c8c7c6c5c8c5c%10c(c1C9N1CCOCCOCCOCCOCCOCC1)c2c45)C3 (configuration not stated) | > 100 µM | 
9 | COc1c(OC)c(OC)c2c(=O)cc(-c3ccc(OC(C)C)cc3)oc2c1OC | > 52.4 µM | 
10 | CC(C)(C)c1ccc(C2CC(=O)C3=C(C2)Nc2ccccc2N(C(=O)c2ccccc2Cl)C3c2ccc(F)cc2)cc1 (configuration not stated) | > 100 µM | > 100 µM
11 | CCOC(=O)CCc1cn2cc(Br)nc(OC)c2n1 | > 100 µM | 
12 | O=C1N2CCC[C@H]2CS1(=O)=O | 42 µM | 
13 | Cc1ccc(N2C(=O)C3CSCN3C2=O)cc1 (configuration not stated) | > 100 µM | 
14 | CCOc1ccc2nc3nc(=O)[nH]c(C)c3c(NC(C)(CO)CO)c2c1 | > 100 µM | 
15 | NC1CCCCC1NCCNC1CCCCC1N (configuration not stated) | > 100 µM | 
16 | O=C1C(Cl)=C(Cl)C(=O)N1c1ccc(Cl)c(Cl)c1Cl | > 100 µM | 
17 | CC(C)C[C@H](NC(=O)Cn1cccc(CNC(=O)c2ccccc2)c1=O)B(O)O | > 100 µM | 26.4 µM
18 | Cc1nc(C)c(N2CCN(CN)CC2)c(=O)[nH]1 | > 100 µM | 
19 | C=C(C)[C@@H]1CCc2c(O)c(O)c(=O)cc(C)c2C1 | > 100 µM | 
20 | CSc1nnc(SCc2nn3c(=O)cc(C)nc3s2)s1 | > 100 µM | 
21 | COc1ccc(/C=C2\CCCc3ccccc3C2=O)cc1 | 22.5 µM | 
22 | Nc1nc(Cl)nc2c1ncn2C1OC(CO)C(O)C1F (configuration not stated) | > 92.5 µM | 0.434 µM
23 | COc1cc2nc(N3CCC[C@H](NC4=CC(=O)c5ccccc5C4=O)C3)nc(N)c2cc1OC | 3.83 µM | 1.9 µM

Row | SMILES | TGI | GI50
24 | COc1ccc(-n2c(N)c(C#N)c(C#N)c2-c2ccco2)cc1 | > 100 µM | 
25 | O=c1[nH]c2ccccc2c(O)c1/C=N/C(=S)NC1CCCCC1 | > 100 µM | 
26 | CC(C)[C@H](C)/C=C/[C@@H](C)C1CC[C@H]2[C@@]34C=C[C@]5(C[C@@H](O)CC[C@]5(C)[C@H]3CC[C@]12C)OO4 (some centres not stated) | > 100 µM | 
27 | O=C(O)c1c2c(cc3c(=O)c4ccccc4[nH]c13)CCCC2 | > 100 µM | 
28 | O=C(Nc1ccc(-n2cc(-c3ccncc3)c(-c3ccc(O)c(Cl)c3)n2)cc1)c1ccc(Cl)c(C(F)(F)F)c1 | > 50 µM | 13.8 µM
29 | COc1ccc2c(c1O)[C@@]13CCCC=C1[C@@H](C2)[N+](C)(C)CC3 | > 100 µM | 
30 | [N-]=[N+]=Nc1nc2ccccc2c(N=[N+]=[N-])c1Cl | > 100 µM | 
31 | O=c1c2ccccc2nc(N/N=C/c2ccc([N+](=O)[O-])cc2)n1-c1ccccc1 | > 100 µM | 
32 | CC(=O)OCC1OC(SC2=NC(=O)CS2)C(OC(C)=O)C(OC(C)=O)C1OC(C)=O (configuration not stated) | > 100 µM | 
33 | O=C(c1ccccc1)c1nnn(Cc2ccccc2Cn2nnc(C(=O)c3ccccc3)c2C(=O)c2ccccc2)c1C(=O)c1ccccc1 | > 100 µM | 
34 | CC(c1ccccc1)n1cncc1C(=O)NN1CCN(C)CC1 (configuration not stated) | > 10 µM | 
35 | CCN1CCN(c2cc(C(=O)Nc3cccc(Nc4ccc5c(OC)cccc5n4)c3)cc(C(F)(F)F)c2)CC1 | 7.28 µM | 1.33 µM
36 | NC(N)=NC(N)=Nc1ccc(C(=O)O)cc1 | > 100 µM | 
37 | C1CSC[C@H]2COC[C@@H](CSCCS1)S2 | > 100 µM | 
38 | Cc1c(Nc2nccc3cc(CN4CC[C@@H](O)C4)cnc23)cccc1-c1cccc(-c2nc3cc(CN4CC[C@@H](C(=O)O)C4)cc(C#N)c3o2)c1C | > 100 µM | > 100 µM
39 | COc1cc(/C=C/C(=O)CC(=O)/C=C/c2cc(OC)c(O)c(OC)c2)cc(OC)c1O | 25 µM and > 100 µM | 30.2 µM
40 | N#C/C(=C/N1CCN(C(=O)c2ccco2)C1=S)C(=O)Nc1ccc(Cl)cc1 | > 50 µM | 28.6 µM
41 | COc1ccc(Br)c(CN2CCc3ccccc32)c1OS(=O)(=O)c1ccc(C)cc1 | > 100 µM | 
42 | CCC1CCCCN1CC(C(C)=O)C(c1ccccc1)c1c(O)c2ccccc2oc1=O (configuration not stated) | > 100 µM | 
43 | Oc1c(Cl)cc2cc1-c1cc(cc(Cl)c1O)CCc1c(cc(Cl)c(O)c1Cl)-c1cc(Cl)c(c(Cl)c1O)/C=C\2 | 16 µM | 
44 | COc1ccc(/C=c2\[nH]c3nc(=O)c(N4CCCCC4)c(N)n3c2=O)cc1 | > 100 µM | 
45 | COc1cc(S(=O)(=O)Nc2ccc(-c3csc(N4C(=O)C(Cl)C4c4ccccc4O)n3)cc2)ccc1Cl (configuration not stated) | > 100 µM | 
46 | Cc1nn(C)c2ncnc(N/N=C/c3cccc(O)c3O)c12 | > 53 µM | 0.426 µM

Row | SMILES | TGI | GI50
47 | Cc1ccc(S(=O)(=O)OCCC2CN(C(=O)OCc3ccccc3)C(C)(C)O2)cc1 (configuration not stated) | > 100 µM | 
48 | O=C1CC(C2(O)C(=O)Nc3ccc([N+](=O)[O-])cc32)c2ccccc21 (configuration not stated) | > 100 µM | 
49 | C=C(CN(CC)CC)C1(c2ccccc2)CC2(CCCC2)C(=O)O1 (configuration not stated) | > 100 µM | 
50 | O=C1NC(=O)C(c2cccc(Cl)c2)=C1Nc1ccc(Cl)c(C(=O)O)c1 | > 25 µM | > 25 µM
51 | COc1cc(S(=O)(=O)Nc2nc(-c3ccc(N4C(=O)C(C)SC4c4ccccc4O)cc3)cs2)ccc1Cl (configuration not stated) | > 100 µM | 73.4 µM
52 | O=Nc1c(-c2c(O)[nH]c3ccc(I)cc23)[nH]c2ccccc12 | > 31.4 µM | 
53 | CCOC(=O)c1sc2c(C(=O)OCC)n3cc(C)cc(C)c3c2c1O | > 100 µM | 
54 | Cc1ccc2oc(=O)c3c(O)c4cccc(OC5OC(C)C6O[C@@H](c7ccccc7)OC6C5OC5OC(C)C(O)C(O)C5O)c4c4oc(=O)c1c2c34 (some centres not stated) | 2.3 µM | 
55 | COc1cccc(NC(=O)CC(=O)n2nc(-c3ccccc3)c(N=Nc3ccc(Cl)cc3)c2-c2ccccc2)c1 | 98 µM | 
56 | CN(C)c1ccc(/C=c2/c3ccccc3n3c2cc(/C=C/c2ccccc2)[n+]3C)cc1 | 1.33 µM | 
57 | CC(C)=Cc1cc(CCC/C(C)=C/Cc2c(O)cc(C)c(C(=O)O)c2O)co1 | > 100 µM | 
58 | Cc1nc(NS(=O)(=O)c2ccc(NCN3C(=O)c4ccccc4C3=O)cc2)oc1C | > 100 µM | > 100 µM
59 | Cc1cc(S(=O)(=O)Nc2nc3cscc3c(=O)n2N)c(S)cc1Cl | > 100 µM | 
60 | COC1=C(OC)C(=O)C(C/C=C(\C)CC/C=C(\C)CC/C=C(\C)CC/C=C(\C)CC/C=C(\C)CC/C=C(\C)CC/C=C(\C)CC/C=C(\C)CC/C=C(\C)CCC=C(C)C)=C(C)C1=O | > 100 µM | > 100 µM
61 | O=C1OC(=O)C23CSCC12C1C=CC3O1 (configuration not stated) | > 100 µM | 
62 | CCCCCCC(=O)C/C(CCC(=O)N(Cc1ccccc1)Cc1ccccc1)=N\NC(N)=O | > 100 µM | 
63 | O=C1CCCCC/C1=C\c1cccc(F)c1 | > 100 µM | 
64 | Cc1ccccc1-n1c(=S)[nH]c2c(sc(=O)n2-c2ccccc2C)c1=O | > 100 µM | 
65 | FC(F)c1ncc(-c2ccc(C(F)(F)F)cc2)c(NC2CCCCCC2)n1 | > 10 µM | > 10 µM
66 | Cc1ccc(SSCC(O)C(O)CSSc2ccc(C)cc2)cc1 (configuration not stated) | 24.3 µM and 47.3 µM | 6.79 µM and 17.1 µM
67 | CC1=C(CO)C(=O)O[C@@H]([C@@H](C)[C@H]2CC[C@H]3[C@@H]4C[C@H]5O[C@]56[C@@H](O)C=CC(=O)[C@]6(C)[C@H]4CC[C@]23C)C1 | 6.32 µM | 
68 | COc1cc(C2c3cc4c(cc3OC(O)C2C)OCO4)cc(OC)c1OC (configuration not stated) | > 100 µM | 
69 | O=c1[nH]n(CCc2ccccc2CCl)c2ccc([N+](=O)[O-])cc12 | > 100 µM | 

Row | SMILES | TGI | GI50
70 | COc1ccc(Nc2ncnc3ccc(-c4cncc(NS(C)(=O)=O)c4)cc23)cc1Cl | 15.6 µM | 3.17 µM
71 | C/C(=N\Nc1nc2ccccc2[nH]1)c1ncccn1 | > 100 µM | 
72 | COC(=O)c1c2c(cc3c1CC1(Cc4cc5c(c(C)c4C1)CCC5)C3)CCC2 (configuration not stated) | > 100 µM | 
73 | COc1cccc(C(C#N)NNC(=O)c2c(Cl)c(Cl)c(Cl)c(Cl)c2-c2nc3ccc(C(=O)c4ccccc4)cc3[nH]2)c1O (configuration not stated) | > 100 µM | 
74 | O=C1c2ccccc2C2(c3ccc(F)cc3)NCCN12 (configuration not stated) | > 100 µM | 
75 | CCC(C)(O)c1cn(-c2ccc(Cl)cc2)nn1 (configuration not stated) | > 100 µM | 
76 | CCN(CC)CCCNCc1cc(-c2ccccc2)nc2cc(Cl)ccc12 | 26.4 µM | 10.1 µM
77 | CCc1ccc2oc(=O)ccc2c1 | > 100 µM | 
78 | Cc1ccc(S(=O)(=O)n2cc([C@@]3(O)C[C@H](CSC#N)OC3=O)c3ccccc32)cc1 | > 100 µM | > 100 µM
79 | CC12CCC(=O)C(O1)C1C(=O)c3ccc4c(ccc5ccccc54)c3C(=O)C12 (configuration not stated) | 17.8 µM | 7.11 µM
80 | COc1cc(Cl)c(CC(=O)c2c[nH]c3ccccc23)cc1OC | > 100 µM | 
81 | COC(=O)CCC(=O)NC1=C(Nc2ccccc2)C(=O)c2ccccc2C1=O | 31.2 µM | 
82 | COc1cc(Cc2c(C)cc(OC)c3[nH]c4ccccc4c23)cc2c1[nH]c1ccccc12 | 24.1 µM | 7.25 µM
83 | OCCCCC#Cc1ccccc1C#Cc1cccnc1 | > 100 µM | 26.8 µM
84 | COC(=O)c1onc(C2OC(C)(C)OC2C(O)COC(c2ccccc2)(c2ccccc2)c2ccccc2)c1C(=O)OC (configuration not stated) | > 100 µM | 
85 | CN1CCC(c2c(O)cc(O)c3c(=O)cc(-c4ccccc4Cl)oc23)C(O)C1 (configuration not stated) | > 100 µM | 
86 | CC(CCc1nc2ccccc2s1)(c1ccc(O)cc1)c1ccc(O)cc1 | 35.2 µM | 
87 | CN(C)CCN1C(=O)c2cccc3c(/C=C/CN4C(=O)c5cccc6cccc(c56)C4=O)ccc(c23)C1=O | > 100 µM | > 100 µM
88 | CN1CCN(CCCOc2ccc3nc(Nc4ccc(F)c(F)c4)ccc3c2)CC1 | 7.05 µM | 2.35 µM
89 | Cc1cc(=O)[nH]c(N/N=C/c2ccccc2O)n1 | > 100 µM | 3.57 µM
90 | Oc1ccc2ccccc2c1OCc1nnc(CCCCCCCCc2nnc(COc3c(O)ccc4ccccc34)n2Nc2ccccc2)n1Nc1ccccc1 | > 100 µM | 
91 | O=c1[nH]nc(-c2ccccc2)c2[nH]c3c(c12)Cc1ccccc1-3 | > 100 µM | 
